The results in this text go back to the GPR68 mutational scans of Howard et al. (2025).

Scores with a large standard error are left out. Not listed are two conditions whose scores span a narrow range. In variant names, del marks residues removed and ins residues inserted between the two positions. For some assays here: How much ogerin was present is not stated here.

The labels stand for the following.
B1: GPR68, Q15743 (parent)
chain: MGNITADNSSMSCTIDHTIHQTLAPVVYVTVLVVGFPANCLSLYFGYLQIKARNELGVYLCNLTVADLFYICSLPFWLQYVLQHDNWSHGDLSCQVCGILLYENIYISVGFLCCISVDRYLAVAHPFRFHQFRTLKAAVGVSVVIWAKELLTSIYFLMHEEVIEDENQHRVCFEHYPIQAWQRAINYYRFLVGFLFPICLLLASYQGILRAVRRSHGTQKSRKDQIQRLVLSTVVIFLACFLPYHVLLLVRSVWEASCDFAKGVFNAYHFSLLLTSFNCVADPVLYCFVSETTHRDLARLRGACLAFLTCSRTGRAREAYPLGAPEASGKSGAQGEEPELLTKLHPAFQTPNSPGSGGFPTGRLA

Variants of B1 are the subject of series [1]. Nature of the series: cAMP reporter score (Enrich2 score, wild type = 0); higher = more signal; HEK293T, FACS bins.
Variants of B1 are the subject of series [2]. Nature of the series: surface expression score (Enrich2 score, wild type = 0); higher = more signal; HEK293T, FACS bins.

For the variant C287K, the cAMP reporter score in series [1] (pH 5.5) is -0.874; in series [1] (pH 6), -1.19; in series [1] (pH 6, modulator: ogerin) it was -1.37; in series [1] (pH 6.5, modulator: ogerin) it was -0.713. In series [2], the surface expression score is -1.07.
Taken in the same sequence, the figures for C287V were -0.359, -1.54, -0.594, -1.4 and 0.273.
On the same counts, the results for C287I are -0.194, -0.597, -0.566, -0.594 and 0.873.
On the same counts, the results for C287F are -0.918, 0.304, -1.34, -0.815 and -0.025.
Regarding C287Y, the cAMP reporter score is -0.837 in series [1] (pH 5.5); -1.3 in series [1] (pH 6); -1.44 in series [1] (pH 6, modulator: ogerin); -1.44 in series [1] (pH 6.5, modulator: ogerin). In series [2], the surface expression score came out at 0.376.
With C287P, the cAMP reporter score is -1.56 in series [1] (pH 5.5); -0.831 in series [1] (pH 6); -1.49 in series [1] (pH 6, modulator: ogerin); -1.28 in series [1] (pH 6.5, modulator: ogerin). For the same variant, the surface expression score in series [2] was -1.73.
On the same counts, the results for C287Q are 0.544, -1.15, 0.009, 0.262 and -1.57.
On to C287W, for which the cAMP reporter score in series [1] (pH 5.5) was -1.27; in series [1] (pH 6), -0.866; in series [1] (pH 6, modulator: ogerin), -1.26; in series [1] (pH 6.5, modulator: ogerin), -1.38. Also, in series [2], the surface expression score turned out to be 0.907.
As for C287N, the cAMP reporter score was -0.143 in series [1] (pH 5.5); -0.512 in series [1] (pH 6); -0.584 in series [1] (pH 6, modulator: ogerin); -0.82 in series [1] (pH 6.5, modulator: ogerin). For the same variant, the surface expression score in series [2] was -1.44.
Taken in the same sequence, the figures for C287T were 0.343, -0.404, 0.102, -1.17 and -0.526.
In the case of C287G, the cAMP reporter score was -0.898 in series [1] (pH 5.5); -1.34 in series [1] (pH 6); -1.21 in series [1] (pH 6, modulator: ogerin); -0.927 in series [1] (pH 6.5, modulator: ogerin). In addition, in series [2], the surface expression score was -1.24.
On the same counts, the results for C287E are 0.118, 0.257, -0.47, -1.09 and -1.54.
C287M: the cAMP reporter score in series [1] (pH 5.5) is -0.946; in series [1] (pH 6, modulator: ogerin) it was -0.926; in series [1] (pH 6.5, modulator: ogerin), -1.26. For the same variant, in series [2], the surface expression score was -0.035.
As for C287R, the cAMP reporter score is -1.01 in series [1] (pH 5.5); 0.379 in series [1] (pH 6); -1.12 in series [1] (pH 6, modulator: ogerin); -0.721 in series [1] (pH 6.5, modulator: ogerin). In series [2], the surface expression score was -0.949.
On the same counts, the results for C287D are -1.4, -1.81, -1.4, -0.731 and -1.63.
Taken in the same sequence, the figures for C287A were 0.143, -0.499, -0.738, -0.656 and 0.378.
As to C287S, the cAMP reporter score in series [1] (pH 5.5) is -0.103; in series [1] (pH 6, modulator: ogerin), -0.177; in series [1] (pH 6.5, modulator: ogerin) it was -0.515.
In the case of C287H, the cAMP reporter score was 0.237 in series [1] (pH 5.5); 0.451 in series [1] (pH 6); -1.14 in series [1] (pH 6, modulator: ogerin); -0.685 in series [1] (pH 6.5, modulator: ogerin). Moreover, the surface expression score in series [2] is -0.562.
On the same counts, the results for C287_V289del are -1.36, -0.617, -2.25, -1.1 and -2.37.
Taken in the same sequence, the figures for V289_S290insGSG were -2.09, -0.74, -1.82, -0.747 and 0.067.
On the same counts, the results for T292del are -1.17, -1.17, -2.04, -1.47 and -0.453.
Consider F288C, for which the cAMP reporter score in series [1] (pH 5.5) was 1.2; in series [1] (pH 6), -0.341; in series [1] (pH 6, modulator: ogerin) it was 0.327; in series [1] (pH 6.5, modulator: ogerin) it was -0.162.
Regarding F288A, the cAMP reporter score was 0.799 in series [1] (pH 5.5); 2.01 in series [1] (pH 6); 0.406 in series [1] (pH 6, modulator: ogerin); 0.165 in series [1] (pH 6.5, modulator: ogerin).
As for F288R, the cAMP reporter score in series [1] (pH 5.5) is -0.662; in series [1] (pH 6), -0.317; in series [1] (pH 6, modulator: ogerin) it was -0.628; in series [1] (pH 6.5, modulator: ogerin), -0.187. In series [2], the surface expression score was -1.6.
For the variant F288Q, the cAMP reporter score in series [1] (pH 5.5) is -0.614; in series [1] (pH 6), -1.2; in series [1] (pH 6, modulator: ogerin), -1.67; in series [1] (pH 6.5, modulator: ogerin), -0.406.
Take F288H: the cAMP reporter score in series [1] (pH 5.5) is -0.658; in series [1] (pH 6), 0.175; in series [1] (pH 6, modulator: ogerin), -1.02; in series [1] (pH 6.5, modulator: ogerin), -0.792. Also, the surface expression score in series [2] is -1.38.
F288G: the cAMP reporter score in series [1] (pH 5.5) was 0.404; in series [1] (pH 6), -0.44; in series [1] (pH 6, modulator: ogerin), -0.358; in series [1] (pH 6.5, modulator: ogerin), -0.775. Moreover, the surface expression score in series [2] is -2.35.
Taken in the same sequence, the figures for F288N were -1.33, -0.424, -1.3, -1.25 and -1.89.
Take F288E: the cAMP reporter score is -0.979 in series [1] (pH 5.5); -1.65 in series [1] (pH 6); -1.62 in series [1] (pH 6, modulator: ogerin); -0.778 in series [1] (pH 6.5, modulator: ogerin). The surface expression score in series [2] was -1.99.
On the same counts, the results for F288L are 0.511, 2.74, 0.595, 3.47 and -0.93.
On the same counts, the results for F288S are -0.236, 0.22, -1.14, -0.979 and -1.27.
